The values that follow come from the RNAGym collection of RNA variant scans (doi:10.1073/pnas.2313332121).

Variants at the floor of the assay are shown more often than the library holds them. A value given as a limit tells only on which side of the number the result lay.

The labels stand for the following.
B1: TPR 5TU (parent)
chain: GGAUCUUCUCGAUCUAACAAAAAAGACAAAUCUGCCACAAAGCUUGAGAGCAUCUUCGGAUGCAGAGGCGGCAGCCUUCGGUGGCGCGAUAGCGCCAACGUUCUCAACUAUGACACGCAAAACGCGUGCUCCGUUGAAUGGAGUUUAUCAUG

In the series the parent is B1. The experiment in a line: polymerase ribozyme fitness, log enrichment relative to wild type (log ratio); higher = more active; in vitro selection for triplet polymerase activity. An outline of the steps:
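A single round of triplicate in vitro selection, including frozen incubation at −7 °C, was applied to PCR-built, transcribed mutant libraries of each subunit of a heterodimeric triplet polymerase ribozyme. Illumina sequencing of input and output libraries retained genotypes with ≥10 input reads and ≥1 read per output. Fitness is the base-2 logarithm of genotype enrichment divided by wild-type enrichment, from inverse-variance-weighted replicate averages.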
As for C8G G143C, the “polymerase ribozyme fitness (log ratio)” value was -4.08.

Take C8A C27G A29G A37C U53A G80A G86U A91C G92A C105G A137C: the “polymerase ribozyme fitness (log ratio)” value was at most -4.2.

As for U7C A19G A24U G34U C51A U77G G84A C99U, the “polymerase ribozyme fitness (log ratio)” value is at most -4.2. For C8U U9C A28U A47U U102G the value was at most -4.2; for C8U U53A C85A C132U, at most -4.2.

In the case of U7C U15G G34A A47C G48A A49C U56A C76U A115G C131U, the “polymerase ribozyme fitness (log ratio)” value was at most -4.2. Then C8U C87G, with at most -4.2; and U7G U9G A22U A28G A49C C96U A122U, with at most -4.2; and U9A C54G A66U C99G A142U, with at most -4.2. Then C8G A40U A41C C85U C103A C129A C131U, with at most -4.2; and U7G A30C C35U C54G A91U C93A C118A C129A U148G, with at most -4.2. Consider C8U U53A, for which the “polymerase ribozyme fitness (log ratio)” value is -3.41.

For C8U A39C C57U U130G, the “polymerase ribozyme fitness (log ratio)” value was at most -4.2. For U7G A17C A21C A37C U55C A73C C99U A106C the value was at most -4.2; for U7G G11A C18A A37G G50A C85U G112U, at most -4.2; for U7G A19C A41C A91U C96U, at most -4.2. Turning to U7G C8G G25C G50A U53A G81A G94A U109A C131A, the “polymerase ribozyme fitness (log ratio)” value was at most -4.2. Then U9C A30U C35A U82A A91U C93A G140U G143A U151G, with at most -4.2; and C8A A22U C79G G81U C95U A107U C108U, with at most -4.2. In the case of C8U U15A U31A U56A A66U G71A C85U A97G G128U, the “polymerase ribozyme fitness (log ratio)” value is at most -4.2. Turning to U9C A22C C54U C57U G100U C105G, the “polymerase ribozyme fitness (log ratio)” value was at most -4.2.

As for C8G A24C G84C G86A C103A G128U, the “polymerase ribozyme fitness (log ratio)” value was at most -4.2. For C8U U33G A49C G50C G94A A97U C118G A121C the value was at most -4.2; for U7G A23C A28U C38G A121G, at most -4.2; for C8A A39U A91U A137C G152U, at most -4.2. For C8G A24G A30G G70A G136C the value was at most -4.2; for C8A A21G A37C C57A C93G U104G G117C A142G U146A A147C, at most -4.2. Then C8G A40C C85G A113U, with at most -4.2; and C8A A29U U33A C51A A64C G65A C69U G83A G94U A138C, with at most -4.2. Consider U9A C43A A147U U151G, for which the “polymerase ribozyme fitness (log ratio)” value is at most -4.2. For C8U G58A A73U A91G A113C U145A the value was at most -4.2; for U9A C85A U90C U104A U127G G140A, at most -4.2. Then C8A A29C G70A G81C G126U G141C, with at most -4.2. Then C8A C10U A22C G88U C95G C108A A119C U145G, with at most -4.2. As for C8G A19U A21C C27U G88A C93U U104G G140A, the “polymerase ribozyme fitness (log ratio)” value was at most -4.2. For C8U U56A C72G C85G the value was at most -4.2.

Regarding U7C G62A G65A G67C C76A U90G C95A C99U U111G U146G, the “polymerase ribozyme fitness (log ratio)” value is at most -4.2.

With C8U A17C A28G C35U C76A C96U U144G, the “polymerase ribozyme fitness (log ratio)” value is -3.75. C8A C72U G81U G84C G88C C99U: the “polymerase ribozyme fitness (log ratio)” value is at most -4.2. For C8U C93U the value was at most -4.2; for U9C A22C C96G C99G G128U, at most -4.2. For U7C A39U A73C C93A C96U the value was at most -4.2. For U7G C43U A64U C76A G84A C125G the value was at most -4.2; for C8A A21C U53A U56A G70U C93U G141C, at most -4.2. As to C8A A40G A60U C93U G136A, the “polymerase ribozyme fitness (log ratio)” value was at most -4.2. For C8U C27G U56A G80A U134C U144A the value was at most -4.2. For U7G C10G A20G A91C U104G C105G A138U the value was at most -4.2.

As to U9C A12G A22G A49C C87U C125U C149G, the “polymerase ribozyme fitness (log ratio)” value was at most -4.2.

Consider C8A A24C A64G C85G G143U, for which the “polymerase ribozyme fitness (log ratio)” value is at most -4.2. For U7G A19U A26G A28C C32U U45G U55G U78A G128A G136U U145A the value was at most -4.2; for U9A C35G G86A A120C C125U G143C, at most -4.2. For U9A A37C C95U, the “polymerase ribozyme fitness (log ratio)” value was at most -4.2. For C8U U15G A17G A30G U44G C76A C87A the value was at most -4.2. Then U7G A21C G58U U61A G62A A89C C103A C108A G143A, with at most -4.2; and C8A G67C G80C A91G, with at most -4.2; and U9C C96A C103A C108U U134A, with at most -4.2. For U9A U13C A37C G42C A91G A110G U111C G124A the value was at most -4.2. U7G A28U A40C A138G: the “polymerase ribozyme fitness (log ratio)” value was at most -4.2. Then U7G A19U A52U U56A A91G C108A, with at most -4.2. Regarding U7A U44A, the “polymerase ribozyme fitness (log ratio)” value is at most -4.2. As to C8A A17G A22U A28C A66C C132G, the “polymerase ribozyme fitness (log ratio)” value is at most -4.2. Then U9A C32U G74U A91U, with at most -4.2. For U7C A21U A49C A52C A64G C93U A120U A137G the value was at most -4.2; for U9A A23G G68C C79U G94C C105G G143A, at most -4.2.

For the variant C8U C14G A22U A28G G128U A138G A150C, the “polymerase ribozyme fitness (log ratio)” value is at most -4.2.

For the variant C8A G84U, the “polymerase ribozyme fitness (log ratio)” value is at most -4.2. For U7G A29U G83C C103U U130G the value was at most -4.2; for C8G G50A U53G U90A C93U, at most -4.2. For C8U G58C the value was -2.7. For C8A U56C A73G C87U A110G G133U A138G the value was at most -4.2. With U9A A22U C51U A60G A106C U135C A150G, the “polymerase ribozyme fitness (log ratio)” value was at most -4.2. For C8G C43U G50U C79G C93A C116G U134G A138C U146G, the “polymerase ribozyme fitness (log ratio)” value is at most -4.2. Then U7G A20U A21U A30C G42C C51U C79G C96A, with at most -4.2; and C8A A16U A17U A26U G80C C87U U139G U151A, with at most -4.2. Then C8A G34A A37G U61C, with at most -4.2. Then U9C A98U A115U A121G U127G, with at most -4.2. U9A A29U U78A C95A A107G: the “polymerase ribozyme fitness (log ratio)” value was at most -4.2. Then C8A A17G U78G G94A G133A U134A, with at most -4.2; and U7G C14U C32G A73G U104A G140U, with at most -4.2; and C8A C38U U45A C57G U78G C85A, with at most -4.2. For C8U G34C G94A U135G the value was at most -4.2; for U7C A19G A52C G71U C76U C93U C99G C105A U109G C132U, at most -4.2; for C8G G11U A73G G86A C99A A142G U148G, at most -4.2.

In the case of C8G A49C U82C C87G, the “polymerase ribozyme fitness (log ratio)” value was at most -4.2.
